Data as given in the RNAGym collection of RNA variant scans (doi:10.7554/elife.90254).
Read counts are not given, so values of variants with three or more changes are uncertain.

B1: OR4K15 (parent)
chain: GUUAACGGUCAUAGGCCAUGGAAACUAGGAGCACCAUUUCGCUGCCAGUGAAGAAAUGAACAAAGAAAAUCUGGGCCAGGCAGGCAUCAAAAGAAAUAGUCUUGCGCUCAACCAGAAAGUCUGUAAUCAUUUUAAGGGUA

Variants of: B1
Assay: self-cleavage, relative activity (ratio to wild type); higher = more cleavage; in vitro, sequencing; the parent is a self-cleaving ribozyme

| Variant | self-cleavage |
| --- | --- |
| GAUAACGGUCAUAGGCCAUGGAAACUAGGAGCACCAUUUCGCUGCCAGUGAAGAAAUGAACAAGGAAAACCUGGGCCAGGCAGGCAUCAAGAGAAAUAGUCUUGCGCUCAACCAGAAAGUCUGUGAUCAUUUUAAGGGUA [U2A A64G U70C A91G A125G] | 0.11 |
| GAUAACGGUCAUAGGCCAUGGAAACUAGGAGCACCAUUUCGCUGCCAGUGAAGAAAUGAACAAAGAAAGUCUGGGCCAGGCAGGCAUCAAAAGAAAUAGUCUCGCGCUCAACCAGAAAGUUUGUAAUCAUUUUAAGGGUA [U2A A69G U103C C121U] | 1.63 |
| GACAACGGUCAUAGGCCAUGGAAGCUAGGAGCACCAUUUCGCAGCCAGUGAAGAAAUGAACAAAGAAAAUCUGGGCCAGGCGGGCAUCAAAAGAAAUAGUCUCGCGCUCAACCAGAAAGUCUGUAAUCAUUUUAAGGGUA [U2A U3C A24G U43A A82G U103C] | 1.42 |
| GAUAACGGUCAUAGGCCAUGGAAACUAGGAGCACCACUUCGCCGCCAGUGAAGAAAUGAACAAAGAAAAUCUGGGCCAGGCAGGCAUCAAAAGAGAUAGUCUUGCGCUCAACCAGAAAGUCUGUAAUCAUUUUAAGGGUA [U2A U37C U43C A95G] | 2.05 |
| GAUAACGGUCAUAGGCCAUGGAAACUAGCAGCACCAUUUCGCCGCCAGUGAAGAAAUGAACUAAGAAAAUCUGGGCCAGGCAGGCAUCAAAAGAAAUAGUCCUGCGCUCAACCAGAAAGUCUGAACUCAUUUUAAGGGUA [U2A G29C U43C A62U U102C U124A A126C] | 0.44 |
| GAUAACGGUCAUAGGCCAUGGAAACUAGGAGCACCAUCUCGCUGCCAGUGAAGAAAUGAACAAAGAAAAUCUGGGCCAGGCAGGCAUCAAAAGGAAUAGUCUUGCGCUCAACCAGAAAGUCUGUAAUCAUUUUAAGGGUA [U2A U38C A94G] | 0.64 |
| GAUAACGGUCAUAGGCCAUGGAAACUAGGAGCACCAUUUCGCUGCCAGUGAAGAAAUGAACAAAGAGAAUCUGGGCCAGGCAGGCAUCAGAAGAAAUAGUCUUGCGCUCAACCAGAAAGUCUGUAAUCAUUUUAAGGGUA [U2A A67G A90G] | 1.23 |
| GAUAACGGUCACAGGCCAUGGAAACUAGGAGCACCAUUUCGCCGCCAGUGAAGAAAUGAACAAUGUAAAUCUGGGCCAGGCUGGCAUCAAAAGAAAUAGUCUUGCGCUCAACCAGAAAGUCUGUAAUCAUUUUAAGGGUA [U2A U12C U43C A64U A66U A82U] | 0.17 |
| GAUAACGGUCAUAGGCCAUGGAAACUAGGAGCACCAUUUCGCUGCCAGUGAAGAAAUGAACAAGGAAAAUCUGGGCCAGGCAGGCAUCAAAAGAAAUAGUCUUGCGCUCAACCAAAAAGUCUGUAAUCAUUUUAAGGGUA [U2A A64G G115A] | 0.4 |
| GAUAACGGUCAUAGGCCAUGGAAACUAGGAGCACCAUUCCGCUGCCAGUGGAGAAAUGAACAAAGAAAAUCUGGGCCAGGCAGGCAUCAAAAGAAAUAGUCUUGCGCCCAACCAGAAAGUCUGUAAUCAUUUUAAGGGUA [U2A U39C A51G U108C] | 0.08 |
| GAUAACGGUCAUAGGCCAUGGAAACUAGGAGCACCACUUCGCUGCCAGUGAAGAAAUGAACAAAGAAAAUCUGGGCCAGGUAGGCAUCAAAAGAAAUAGUCUUGCGCUCAACCAGAAAGUCUGUAAUCAUUUUAAGGGUA [U2A U37C C81U] | 0.79 |
| GAUAACGGUCAUAGGCCAUGGAAACUAGGAGCACCAUUUCGCUGCCAGUGAAGAAAUGAACAAAGGAAAUCUGGGCCAGGCAGGCAUCGAAAGAAAUAGUCUUGCGCUCAACCAGAAAGUCUGUAAUCAUUUUAAGGGUG [U2A A66G A89G A140G] | 1.06 |
| GAUAACGGCCAUAGGCCAUGGGAACUAGGAGCACCAUUUCGCCGCCGGUGAAGAAAUGAACAAAGAAAAUCUGGGCCAGGCAGGCAUCAAAAGAAAUAGUCUUGCGCUCAACCAGAGAGUCUGUAAUCAUUUUAAGGGUA [U2A U9C A22G U43C A47G A117G] | 1.59 |
| GAUAACGGUCAUAGGCCAUUGAAACUAGGAGCACCAUUUCGCUGCCAGUGAAGAAGUGAACAAAGAAAAUCUGGGCCAGGCAGGCAUCAAAAGAAAUAGUCUUGCGCUCCACCAGAAAGUCUGUAAUCAUUUUAAGGGUA [U2A G20U A56G A110C] | 0.32 |
| GAUAACGGUCAUAGGCCAUGGAAACUAGGAGCACCAUUUCGCUGCCAGUGAAGAAAUGAACAAAGAAGACCUGGGCCAGGCGGGCAUCAGAAGAAAUAGUCUUGCGCUCGACCAAAAAGUCUGUAAUCAUUUUAAGGGUA [U2A A68G U70C A82G A90G A110G G115A] | 0.02 |
| GAUAACGGUCAUAGGCCAUGGAAACUAGGAGCACCAUUUCGCUGCCAGUGAAGAAAUGAACAAAGAAAAUCUGUGCCAGGCAGGCAUCAAAAGAAAUAGUCUUGCGCCCAACCAGAAAGUCUGUAAUCAUUUUAAGGGUA [U2A G74U U108C] | 0.04 |
| GAUAACGGUCAUAGGCCAUGGAAACUAGGAGCACCAUUCCGCUGCCAGUGAAGAAAUGAACAAAGUAAAUCUGGGCCAGGCAGGCAUCAAAAGAAAUAGUCUUGCGCUCAACCAGAAAGUCUGUAAUCAUUUUAAGGGUA [U2A U39C A66U] | 1.04 |
| GAUAACGGUCAUAGGCCAUGGAAACUAGGAGCACCAUUUCGCUGCCAGUGAAGAAAUGAACAAAGAAAAUCUGGGCCAGGCAGGCAUCAAAGGAAAUAGUCCUGCGCUCAACCAGAAAGUCUGUAGUCAUUUUAAGGGUA [U2A A92G U102C A126G] | 1.56 |
| GAUAACGGUCAUAGGCCAUGGAAACUAGGAGCACCAUUUCGCUGCCAGUGAAGAAAUGAACGAAGAAGAUCUGGGCCAGGCAGGCAUCAAAAGAAAUAGUCUUGCGCUCAGCCAGAAAGUCUGUAAUCAUUUUAAGGGUA [U2A A62G A68G A111G] | 0.05 |
| GAUAACGGUCAUAGGCCAUGGAAACUAGGAGCACCAUUUCGCCGCCAGUGAAGAAGUGAACAAAGAAAAUCUGGGCCAGGCAGGCAUCAAAAGAAAUAGUCUUGCGCUCAACCAGAAAGUCUGUAAUCAUUUUAAGGGUA [U2A U43C A56G] | 0.84 |
| GAUAACGGUCAUAGGCCAUGGAAACUAGGAGCACCAUUUCGCUGCCAGUGAAGAAAUGAACAAAGAAGAUCUUGGCCAGGCAGGCAUCAAAAGAAAUAGUCUUGCGCUCAACCAGAAAGUCUGUAAUCAUUUUAAGGGUA [U2A A68G G73U] | 0.15 |

| Variant | self-cleavage |
| --- | --- |
| GAUAACUGUCGUAGGCCAUGGAAACUAGGAGCACCAUUUCGCUGCCAGUGAAGAAAUGAACGAAGAAAGUCUGGGCCAGGCAGGCAUCAAAAGAAAUAGUCUUGCGCUCAACCAGAAAGUCUGUAAUCAUUUUAAGGGUA [U2A G7U A11G A62G A69G] | 1.07 |
| GAUAACGGUCAUAGGCCAUGGAAACUAGGAGCACCAUUUCGCUGCCAGUGAAGAAAUGAACAAAGAUAAUCUGGGCCAGGCAGGCAUCAAAAGAAAUAGCCUUGCGCUCAACCAGAAAGUCUGUAAUCAUUUUAAGGGUA [U2A A67U U100C] | 0.65 |
| GAUAACGGUCAAAGGCCAUGGAAACUAGGAGCGCCAUUUCGCCGCCAGUGAAGAAAUGAACAAAGAAAAUCUGGGCCAGGCAGGCAUCAAAAGAAAAAGUCUUGCGCUCAACCGGAAAGUCUGUAAUCAUUUUAAGGGAA [U2A U12A A33G U43C U97A A114G U139A] | 0.23 |
| GAUAACGGGCAUAGGCCAUGGAAACUAGGAGCACCAUUUCGCUGCCAGUGAAGAAAUGAACAAAGAAAACCUGGGCCAGGCAGGCAUCAAGAGAAAUAGUCUUGCGCUCAACCAGAAAGUCCGUAAUCAUUUUAAGGGUA [U2A U9G U70C A91G U122C] | 0.22 |
| GAUAACGGUCAUAGGCCAUGGAAACUAGGAACACCAUUUCGCUGCCAGUGAAGAAAUGAACAGAGAAAAUCUGGGCCAGGCAGGCAUCAAAAGAAAUAGUCUUGCGCUCAACCUGAAAGUCUGUAAUCAUUUUAAGGGUA [U2A G31A A63G A114U] | 0.06 |
| GAUAACGGUCAUAGGCCAUAGAGGCUAGGAGCACCAUUUCGCUGCCAGUGAAGAAAUGAACAAAGAAAAUCUGGGCCAGGCAGGCAUCAAAAGAAAUAGUCUUGCGCUCAACCAGAAAGUCUGUAAUCAUUUUAAGGGUA [U2A G20A A23G A24G] | 0.09 |
| GAUAACGGUCAUAGGCCAUGGAAACUAGGAGCACCAUCUCGCUGCCAGUGAAGAGAUGAACAAAGAAAAUCUGGGCCAGGCAGGCAUCAAAAGGAAUAGUCUUGCGCUCAACCAGAAAGUCUGUAAUCAUUUUAAGGGUA [U2A U38C A55G A94G] | 1.55 |
| GAUAACGGUCAUAGGCCAUGGAAACUAGGAGCACCAUUUCGCUGCCAGUGAAGAAAUGAACAAAGAAAAUCUGGGCCAGGCAGGCAUCAAAAGAAAUAGUCUUGCGCUCAACCAGAAAGUCUGUAGUCAUUUUAAGGGCA [U2A A126G U139C] | 1.14 |
| GAUAACGGUCAUAGGCCAUGGAAACUAGGAGCACCAUUUCGCUGCCAGUGAAGAAAUGAACAGAGAAAAUCUGGGCCAGGCGGGCAUCAGAAGAAAUAGUCUUGCGCUCAACCAGAAAGUCUGUAAUCAUUUUAAGGGUA [U2A A63G A82G A90G] | 0.45 |
| GAAAACGGUCAUAGGCCAUGGAAACUAGGAGCACCAUUUCGCUGCCAGUGAAGAAAUGAGCAAAGAAAAUCUGGGCCAGGCAGCCAUCAAAAGAAAUAGUCUUGCGCUCAACCAGAAAGUCCGUAAUCAUUUUAAGGGUA [U2A U3A A60G G84C U122C] | 0.47 |
| GAUAACGGUCAUAGGCCAUGGAAACUAGGAGCACCAUUUCGCUGCCAGUGAAGAAAUGAACAGAGAAAAUCUGGGCCAGGCAGGCAUCAAAAGAAAUAGUCUUGCGCCCUACCAGAAAGUCUGUAAUCAUUUUAAGGGUA [U2A A63G U108C A110U] | 0.03 |
| GAUAACGGCCAUAGGCCAUGGAAACUAGGAGCACCAUUUCGCUGCCAGUGAAGAAAUGAACAAAGAAAAUCUGGGCCUGGCAGGCAUCAAAAGAAAUAGUCUUGCGCUCAACCAGAAAGUCUGUAACCAUUUCAAGGGUA [U2A U9C A78U U127C U133C] | 0.33 |
| GAUAACGGUCAUAGGCCAUGGAAACUAGGAGCACCAUUUCGCUGCCAGUGAAGAAAUGAACAAAGAAAAUCUGGGCCAGGCAGGCAUCAAAAGGAAUAGUCUUGCGCUCAACCAGAAAGUCUGUAAUCAUUUUAAGGGCA [U2A A94G U139C] | 0.84 |
| GAUAACGGUCAUAGGCCAUGGAAACUAGGAGCACCAUUUCGCUGCCAGUGAAGAAAUGAACAAAGAGGAUCUGGGCCAGGCAGGCACCAAAGGAAAUAGUCUUGCGCUCAACCAGAAAGUCUGUAAUCAUUUUAAGGGUA [U2A A67G A68G U87C A92G] | 1.54 |
| GAUAACGGUCAUAGGCCAUGGAAACUAGGAGCACCACUUCGCUGCCAGAGAAGAAAUGAACAAAGAAAAUCUGGGCCAGGCAGGCAUCAAAAGAAAUAGUCUUGCGCUCAACCAGUAAGUCUGUAACCAUUUUAAGGGUA [U2A U37C U49A A116U U127C] | 0.14 |
| GAUAACGGCCAUAGGCCAUGGAAGCUAGGAGCACCACUUUGCUGCCAGUGAUGAAAUGAACAAAGAAAAUCUGGGCCAGGCAGGCAUCAAAAGAAAUAGUCUUGCGCUCAACCAGAAAGUCUGUAAUCAUUUUAAGGGCA [U2A U9C A24G U37C C40U A52U U139C] | 0.65 |
| GAUAACGGUCAUAGGCUAUGGAAACUAGGAGCACCAUUUCGCUGCCAGUGAAGAAAUGAACAAAGAAAAUCUGGGCCAGGCAGGCAUCAAAAGAAAUAGUCCUGCGCUCAACCAGAAAGUCUGUAAUCAUUUUAAGGGUA [U2A C17U U102C] | 1.65 |
| GAUAACGGUCAUAGGCCAUGGAAACUAGGAGCACCAUUUCGCUGCCAGUGAAGAAAUGAGCAAAGAAAAUCUGGGCCAGGCAGGCAUCAAAAGAAGUAGUCUUGCGCUCAACCAGGAAGUCCGUAAUCAUUUUAAGGGUA [U2A A60G A96G A116G U122C] | 1.18 |
| GAUAACGGUCAUAGGCCAUGGAAACUAGGAGCACCACUUCGCUGCCAGUGAAGAAAUGAACAAAGAAAAUCUGGGCCAGGCAGGCAUCAAAAGUAAUAGUCUUGCGCUCAGCCAGAAAGUCUGUAAUCAUUUUAAGGGUA [U2A U37C A94U A111G] | 0.12 |
| GAUAACGGUCAUAGGCCAUGGAAACUAGGAGCACCAUUUCGCCGCCAGUGAAGAAAUGAACAAAGAAAAUCUGGGCCAGGCAGGCAUCAAAAGGAAUAGUCUUGCGCUCAACCAGAAAGUCUGUAAUCAUUUUAAGCGUA [U2A U43C A94G G137C] | 1.57 |
